B1: LINE1-mini (parent)
chain: GGCAGAGCUCAACACAGCGUGGCAAAGUGGCUGUGGCUAGACUGCC

The source gives no read counts; variants with many changes may rest on few reads.

The variants in this data set derive from B1. As to the kind of experiment: self-cleavage, relative activity (ratio to wild type); higher = more cleavage; in vitro, sequencing; the parent is a self-cleaving ribozyme.
With A11C C31A U32C, the self-cleavage came out at 0.

For A11C C23A A41U G44U, the self-cleavage was determined as 0.

As to A11C G19C A25U, the self-cleavage is 0.03.

As to A11C G27C G40C, the self-cleavage was 0.

On to A11G A12U C42A, for which the self-cleavage was 0.01.

With A11C G33A U38A G40U, the self-cleavage turned out to be 0.01.

A11C G19U G29C C46G: the self-cleavage was 0.14.

For the variant A11C C37G A39G, the self-cleavage was 0.

For the variant A11G A16U A24U, the self-cleavage was determined as 0.

On to A11G A12U A25U, for which the self-cleavage was 0.05.

As for A11C C37U C46G, the self-cleavage is 0.04.

In the case of A11C C37U C46A, the self-cleavage came out at 0.

Regarding A11G G21U G35U, the self-cleavage turned out to be 0.01.

As for A11C A39U C46G, the self-cleavage amounted to 0.01.

Turning to A11G G19C U28C U32G, the self-cleavage was 0.02.

With A11G G19C G21A, the self-cleavage was 0.02.

For the variant A11C G30U C37A, the self-cleavage worked out at 0.03.

Consider A11G G29A C31U G35A A41C, for which the self-cleavage worked out at 0.

With A11C G21A A41U, the self-cleavage was found to be 0.05.

Turning to A11G A12U A16U G21A, the self-cleavage stood at 0.

With A11G G19A C31U A39U, the self-cleavage came out at 0.02.

A11C A24G G35C: the self-cleavage was 0.02.

On to A11C G30U A39U G44U, for which the self-cleavage stood at 0.

Turning to A11G G22C A26C G27U, the self-cleavage amounted to 0.01.

Take A11C C23U A25U C37U C42G C45U C46U: the self-cleavage amounted to 0.01.

As to A11C G22C G27A, the self-cleavage was 0.02.

Turning to A11C G22C G36U, the self-cleavage was 0.01.

In the case of A11C C31A C37A C46G, the self-cleavage was determined as 0.

A11G C31A C37G C46A: the self-cleavage worked out at 0.

Consider A11C A24U C45A, for which the self-cleavage worked out at 0.

For the variant A11G A12U G22C C31A U32G C37U U43A, the self-cleavage is 0.

Consider A11G C18A C31G A39C C42A, for which the self-cleavage was 0.

Regarding A11G A12C A16U G19A G21A, the self-cleavage came out at 0.02.

Turning to A11G C15A G36A, the self-cleavage was 0.02.

On to A11G G35U U38A, for which the self-cleavage is 0.02.

On to A11G G35U U38G, for which the self-cleavage turned out to be 0.01.

For A11C A25C C37A, the self-cleavage came to 0.01.

Consider A11C C31U G36U C45A, for which the self-cleavage was found to be 0.

Consider A11C A16G G30U, for which the self-cleavage worked out at 0.01.

Take A11G A25U G29U: the self-cleavage is 0.02.

As to A11G C37A C46U, the self-cleavage was found to be 0.01.

For A11G A26G U28A, the self-cleavage worked out at 0.

As to A11C G21C C46G, the self-cleavage was 0.1.

As to A11G G19A G36C, the self-cleavage turned out to be 0.01.

For the variant A11G C15A C18A G36C, the self-cleavage stood at 0.

On to A11G G21A C31A U32C, for which the self-cleavage is 0.01.

For the variant A11G C31A G33U, the self-cleavage stood at 0.01.

For A11G C13A C23U C31U, the self-cleavage was 0.03.

Regarding A11G G19U G30A, the self-cleavage was 0.02.

In the case of A11G C15U U28G A39U, the self-cleavage came out at 0.01.

For the variant A11C G21C G29U U32C A41U, the self-cleavage was 0.01.

With A11G C15A U38G, the self-cleavage is 0.02.

Regarding A11C A16G C18A U28A, the self-cleavage came out at 0.02.

As to A11G C31A G35U, the self-cleavage was determined as 0.03.

For the variant A11G C18G U32A G36A, the self-cleavage was found to be 0.

For the variant A11C C13U G19U U28A G29C C42U, the self-cleavage was found to be 0.01.

For A11G G33C A41G, the self-cleavage came to 0.03.

A11G A12G C18G A24G: the self-cleavage is 0.01.

For the variant A11G G30U G40C, the self-cleavage was found to be 0.

With A11G C15A G29A U32G, the self-cleavage worked out at 0.

For the variant A11C A16G C18A G21C, the self-cleavage turned out to be 0.03.

In the case of A11G G22C U32C, the self-cleavage amounted to 0.01.

Turning to A11G A12G C13U C18U C23A A26C G30A, the self-cleavage came to 0.

With A11G G44U C46G, the self-cleavage turned out to be 0.04.

With A11C A26G G40A, the self-cleavage came out at 0.04.

With A11C A14U C37G C45A, the self-cleavage is 0.02.

With A11G G33U C46U, the self-cleavage was 0.03.

For A11C U20A G30U G40C C42A, the self-cleavage was found to be 0.

Turning to A11G C15U A39C, the self-cleavage was 0.

For the variant A11C C15U G21C, the self-cleavage was 0.05.

Turning to A11G A24U G44C C46A, the self-cleavage came to 0.07.

On to A11G C37A A39C, for which the self-cleavage stood at 0.

A11G A24C A26G U32C C37U A39G: the self-cleavage was determined as 0.

As for A11G A14C U28A, the self-cleavage was 0.01.

For A11G C15G C42U, the self-cleavage worked out at 0.01.

For A11C C13U A14G C18A U20G U38G, the self-cleavage turned out to be 0.02.

As for A11G G17U C46A, the self-cleavage turned out to be 0.02.

Take A11C A16G G17U C37A: the self-cleavage was 0.

A11C C23A A24G G36A C46G: the self-cleavage worked out at 0.01.

With A11C A24G G29U A41G, the self-cleavage is 0.01.

In the case of A11G A12U A14C A39G, the self-cleavage stood at 0.02.

Consider A11C G21A C23A G36C, for which the self-cleavage was 0.01.

Turning to A11C G21U C37U, the self-cleavage was determined as 0.

Regarding A11C U28C C46A, the self-cleavage turned out to be 0.

Take A11G C15U C37A: the self-cleavage stood at 0.02.

Turning to A11G A16G A26U G35U C37U, the self-cleavage came to 0.02.

In the case of A11G G17C G29U C37G A39C, the self-cleavage amounted to 0.

With A11C G30U C46A, the self-cleavage came to 0.

Regarding A11C U34C G36A G40A, the self-cleavage turned out to be 0.

With A11G A25U G40C C46U, the self-cleavage was found to be 0.

For A11G C31A G36U, the self-cleavage was determined as 0.01.

Take A11C G22A U32G: the self-cleavage was found to be 0.

In the case of A11G G19U C31G, the self-cleavage came to 0.04.

Turning to A11C G21C A26C C46U, the self-cleavage worked out at 0.02.

As for A11G G22U A26C G40C, the self-cleavage was 0.03.

With A11C C31G G35U U38G, the self-cleavage stood at 0.01.

Consider A11G C13A A16U G40C, for which the self-cleavage was determined as 0.02.

With A11C U28G G29U, the self-cleavage came to 0.05.

For A11G G17U A26C, the self-cleavage worked out at 0.04.

As for A11G G22U C23A G27A, the self-cleavage was 0.

For A11G A24C G29C, the self-cleavage worked out at 0.01.

Take A11C U34A C42A: the self-cleavage came out at 0.03.

Take A11C C23U A26G: the self-cleavage stood at 0.03.

Take A11C G22A A25G G44U: the self-cleavage is 0.01.

Consider A11C G19A G22C C45A C46U, for which the self-cleavage worked out at 0.

A11G C15A G17A G19A: the self-cleavage was found to be 0.02.

As for A11C U20G G33C A39C, the self-cleavage is 0.

For A11C G17A G19A G35A G36U C45A, the self-cleavage was 0.02.

Turning to A11G A12G C18G G27A G35U A41G, the self-cleavage was found to be 0.01.

For A11G A12C G19U C37U, the self-cleavage stood at 0.

For A11G G27C U38G C42A G44C C46A, the self-cleavage came out at 0.

On to A11G G29A C31G G40C, for which the self-cleavage worked out at 0.01.

For the variant A11C C37A G40C G44U, the self-cleavage amounted to 0.04.

For the variant A11C C15U C46A, the self-cleavage was determined as 0.

Take A11G G33C G44A: the self-cleavage came out at 0.01.

Regarding A11C G22C C42U, the self-cleavage amounted to 0.

On to A11C U38G G44C, for which the self-cleavage came to 0.

In the case of A11C C37A G40U C42G, the self-cleavage was found to be 0.

A11C G30U G33A C37U: the self-cleavage stood at 0.03.

With A11G G29C C31U A39C, the self-cleavage came to 0.01.

Regarding A11C G27A G35C C45U, the self-cleavage was found to be 0.02.

With A11G C13U A16U U20A G22C C23U G29C C31A U32C, the self-cleavage came to 0.

Regarding A11C U43A C45G, the self-cleavage worked out at 0.01.

For the variant A11G G30U G33U A39U, the self-cleavage was 0.01.

For A11G G17A G21C A26G C42U U43C G44A, the self-cleavage came to 0.01.

In the case of A11C C13U A14U C23U C31U, the self-cleavage was determined as 0.01.

Consider A11G G21U U38C, for which the self-cleavage came to 0.02.

For A11C C13A A16C U34A C42U, the self-cleavage is 0.

As to A11G A25G A26C G29C, the self-cleavage came to 0.04.

On to A11C C15A A39G C42U, for which the self-cleavage is 0.02.

In the case of A11G A14U C15A A25U C31G, the self-cleavage stood at 0.01.

Consider A11G G30U C45U, for which the self-cleavage came out at 0.02.

Take A11G A12U G22C A24G C37G: the self-cleavage is 0.02.

Turning to A11C C15A A16U C23A A24C G30U, the self-cleavage came out at 0.01.

Regarding A11G A25C G27A G29C U34A G44U, the self-cleavage came out at 0.01.

For the variant A11C G17C C37G A41U, the self-cleavage stood at 0.

For A11C A16G C23U G40U, the self-cleavage was 0.01.

Consider A11C A16C U20A G29U U32A G35C C46U, for which the self-cleavage was found to be 0.

With A11G A16U A39C G40U, the self-cleavage turned out to be 0.01.

Take A11C C15A G19A: the self-cleavage is 0.02.

In the case of A11G G22U C42U, the self-cleavage came to 0.02.

In the case of A11C C13U U20A U32C, the self-cleavage was found to be 0.01.

For A11C G29A G33A U43C C45U, the self-cleavage worked out at 0.03.

In the case of A11C G40U U43G, the self-cleavage turned out to be 0.

With A11G G21A G33U G35A U43A G44A, the self-cleavage came to 0.

As for A11G A24U C37U A39G, the self-cleavage is 0.01.

Turning to A11C C15A C18G, the self-cleavage was 0.02.

Consider A11C U34A G40A, for which the self-cleavage stood at 0.03.

On to A11C U20C A26U, for which the self-cleavage was found to be 0.01.

As to A11G G21U G27U C46A, the self-cleavage came to 0.02.

With A11C G27A G36U, the self-cleavage was 0.01.

As to A11C G30A C46U, the self-cleavage came to 0.03.

For A11C A16C A24G A25U U38C, the self-cleavage came to 0.01.

Turning to A11G G17A U34G A41C, the self-cleavage came to 0.04.

On to A11C C15A C37A G40U, for which the self-cleavage is 0.

Consider A11C C31G U38G, for which the self-cleavage was 0.

As for A11C C13U G27C, the self-cleavage came out at 0.03.

On to A11G G27A C45A, for which the self-cleavage amounted to 0.06.

Turning to A11C G30U G35U, the self-cleavage worked out at 0.

With A11G C13U A16C G30A G44A, the self-cleavage was determined as 0.03.

Take A11C C15A A16C G21C: the self-cleavage came to 0.

Consider A11G C13U G19U, for which the self-cleavage is 0.01.

As to A11G C31U U32C G36A G40A, the self-cleavage turned out to be 0.

For the variant A11C C18U G27C, the self-cleavage was 0.02.

With A11C G35A C45U, the self-cleavage came out at 0.01.

With A11G G17C U20A C37A, the self-cleavage came out at 0.01.

For the variant A11G C15A A16C G19A C45U, the self-cleavage was determined as 0.01.
